Measured values published in PMC4336329 (PLoS ONE, 2015).
Among all 310,000 compounds or so, about 2,200 (0.71%) showed an effect of 50% or more. The effect is printed as a negative number. The list shows a part of the results.

Target: human ether-à-go-go-related gene (hERG) potassium channel (human, UniProt Q12809)
Assay: primary screen, population patch clamp on CHO cells stably expressing hERG

Sequence of human ether-à-go-go-related gene (hERG) potassium channel (Q12809 whole entry, looked up): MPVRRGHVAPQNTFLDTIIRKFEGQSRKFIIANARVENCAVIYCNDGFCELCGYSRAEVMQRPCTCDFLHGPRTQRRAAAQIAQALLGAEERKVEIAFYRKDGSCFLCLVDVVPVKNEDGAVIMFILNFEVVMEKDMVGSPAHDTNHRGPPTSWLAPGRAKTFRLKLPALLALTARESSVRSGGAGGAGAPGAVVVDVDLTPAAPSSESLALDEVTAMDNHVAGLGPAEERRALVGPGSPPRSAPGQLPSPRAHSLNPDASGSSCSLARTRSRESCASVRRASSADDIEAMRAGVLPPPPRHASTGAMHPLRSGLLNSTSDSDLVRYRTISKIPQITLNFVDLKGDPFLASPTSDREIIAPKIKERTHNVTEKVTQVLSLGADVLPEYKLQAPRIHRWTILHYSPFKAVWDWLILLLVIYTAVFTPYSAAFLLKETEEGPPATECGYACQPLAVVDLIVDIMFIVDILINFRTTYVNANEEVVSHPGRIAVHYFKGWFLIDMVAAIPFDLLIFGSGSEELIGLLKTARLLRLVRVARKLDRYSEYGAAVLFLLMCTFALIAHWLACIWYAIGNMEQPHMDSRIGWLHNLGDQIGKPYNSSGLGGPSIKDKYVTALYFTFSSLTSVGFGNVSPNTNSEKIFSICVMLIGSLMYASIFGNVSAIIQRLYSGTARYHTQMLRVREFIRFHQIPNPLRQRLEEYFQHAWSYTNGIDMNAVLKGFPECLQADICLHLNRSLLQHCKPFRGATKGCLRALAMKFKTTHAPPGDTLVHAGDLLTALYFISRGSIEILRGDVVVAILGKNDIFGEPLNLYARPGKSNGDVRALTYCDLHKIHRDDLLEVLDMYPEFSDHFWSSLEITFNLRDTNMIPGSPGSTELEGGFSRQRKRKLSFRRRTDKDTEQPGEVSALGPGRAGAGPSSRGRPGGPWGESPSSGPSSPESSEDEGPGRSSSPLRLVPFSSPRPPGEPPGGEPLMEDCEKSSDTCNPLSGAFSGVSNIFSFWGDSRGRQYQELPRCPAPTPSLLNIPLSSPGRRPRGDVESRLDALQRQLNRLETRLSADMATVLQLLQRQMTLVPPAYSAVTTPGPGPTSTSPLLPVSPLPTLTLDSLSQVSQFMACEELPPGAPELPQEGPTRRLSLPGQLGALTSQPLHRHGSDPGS

Row | Structure (SMILES) | hERG current change (%, negative = inhibition) at 1uM [%]
1 | COc1cccc(-n2c(CN3CCN(c4cccc(C)c4)C(C)C3)nc3ccc([N+](=O)[O-])cc3c2=O)c1 (stereo not shown) | 0.326
2 | Cc1ccccc1-n1nnnc1SCC(C)C | 12.1
3 | N#Cc1nc(COc2ccc(-c3ccccc3)cc2)oc1NCc1cccnc1 | -11.5
4 | C=C(C)CSc1nc2sc3c(c2c(=O)n1C1CCCCC1)CCN(C)C3 | 4.06
5 | CCOc1ccccc1Nc1nnc(SCc2nnc(-c3cc(OC)c(OC)c(OC)c3)o2)s1 | 14.8
6 | COC(=O)CN(C(=S)Nc1ccc(F)cc1)C1CC(=O)N(c2ccccc2)C1=O (stereo not shown) | 7.56
7 | Cc1ccc(CSCC(=O)NN=C2CCN(C)CC2)cc1 | 5.81
8 | Cc1cc(Sc2ncnc(N)c2[N+](=O)[O-])ncn1 | 13
9 | CCCCN(C(=O)C1CCC1)c1c(N)n(Cc2ccccc2)c(=O)[nH]c1=O | -3.05
10 | CCOC(=O)c1sc(NC(=O)CSc2nccc(C)n2)nc1C | 3.98
11 | CCOC(=O)NC(NCc1cccc(C(F)(F)F)c1)(C(F)(F)F)C(F)(F)F | 3.93
12 | C/C(=N\OC(=O)c1ccc(F)cc1)c1sc(-c2ccc(Cl)cc2)nc1C | 9.67
13 | CCCNC(=O)C(Cc1ccccc1)NS(=O)(=O)c1ccc2c(c1)CCC(=O)N2 (stereo not shown) | 7.16
14 | COc1ccc(CCNC(=O)/C=C/c2ccc(OC)c(S(=O)(=O)N3CCOCC3)c2)cc1 | 1.69
15 | Clc1nssc1=Nc1nncs1 | 11.8
16 | Cc1cccc(N2C(=O)CC(SC(=Nc3ccccc3)Nc3ccccc3)C2=O)c1 (stereo not shown) | 3.93
17 | Cc1onc(-c2c(F)cccc2Cl)c1C(=O)NCc1ccccc1 | 8.18
18 | O=C(c1ccc(=O)[nH]n1)N1CCc2ccccc2C1 | 6.05
19 | COc1ccccc1CNC(=O)CCC(=O)N1CCOc2ccc(C)cc21 | -1.63
20 | O=C(CCN1C(=O)C2C3C=CC(C3)C2C1=O)N1CCN(c2ccc(F)cc2)CC1 (stereo not shown) | -5.37
21 | CCNC(=S)Nc1ccc(Cc2ccncc2)cc1 | -6.12
22 | Cc1cc(C)cc(OCC(=O)Nc2cccc(C(=O)O)c2)c1 | 19.6
23 | Cc1ccc(S(=O)(=O)N2CCN(CC(O)c3ccccc3)CC2)cc1 (stereo not shown) | 0.165
24 | Cc1occc1-c1nnc(SCC(=O)N(C)CCC#N)n1N | 8.91
25 | CCC(C)[C@H](NC(=O)OC(C)(C)C)C(=O)NCC1CCC(C(=O)N[C@@H](Cc2ccccc2)C(=O)O)CC1 (stereo partly shown) | 13.6
